Measured values reported in the supplement of paper PMC11417369.
± gives the standard deviation of the averaged measurements. Some of the results follow.

The sequences below were run on PfAP2-I AP2 domain 3 (GST-tagged) (assay: gcPBM binding intensity (ln(normalized median fluorescence intensity)); higher = stronger DNA binding).
Procedure, shortened: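 DNA-binding domains from P. falciparum, fused to GST and produced in E. coli, were put on an Agilent 4 × 180k double-stranded probe array for 1 h in 1× PBS holding 1% milk, 0.2 mg/ml BSA, 0.5% salmon testes DNA and 0.03% Triton X-100. Probes were primer-extended, 36 bp long and drawn from intergenic genomic regions, with negative controls included. After Alexa488 anti-GST antibody detection and a 488 nm scan, binding intensity was set as the highest Masliner-normalised natural-log median intensity across replicate spots of either probe orientation.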

In order of falling “gcPBM binding intensity (ln)” value:
1. GTCATCAAGTATTAAGTGCATTAAAAATAAAATATA  11.3 ± 0.62
2. CCCATTTAATATTGAGTGCATTTAAATAAATGTATT  10.7 ± 0.56
3. TATATATATATATACACACACACATATATATATATA [CACACA_site774]  9.32 ± 0.5
4. AAAATACACAACATATATATATATATATATATATAT [XGTACX_negctrl_site21]  9.27 ± 0.54
5. ATATGTGGAAATAGAGCACACATATATATAATATAT [CACACA_site8194]  9.225 ± 0.092
6. CATATATATATATATATATATATATTTATTTATTTA [TGCATGCA_negctrl_site165]  8.46 ± 0.42
7. TTTTTTTTTTTTTTTGCATGCAGGTTTTTACCCCTT [TGCATGCA_site381]  8.44 ± 0.69
8. TTATTTTCAAAATGTTGTACACACAAAAAAAAAAAA [XGTACX_site3151]  8.4 ± 0.42
9. ACTTTTTATTTTTTACTATATATATATATATATATG [TGCATGCA_negctrl_site463]  8.31 ± 0.44
10. TATATATTTGTTCACACACACACAAAAAAAAAAAAA [CACACA_site2475]  8.08 ± 0.52
11. TGATCAATGGATTTAACACACAAAAAAAAAAAAAAA [CACACA_site3845]  8.05 ± 0.65
12. TACATGAATAAACTTACACACACCCATGCATACATA [CACACA_site97]  8.03 ± 0.71
13. AACATAAGTAAGAATACATGCGGAAATTATATAGAA [TGCATGCA_site112]  8 ± 0.73
14. TTAAAAGAAAATAACACACACAAAAAAAAAAAAAAA [CACACA_site2117]  7.98 ± 0.71
15. TATGTATATATATAAAGTACGCAAATTTATAATAAG [XGTACX_site8744]  7.96 ± 0.4
16. ATTTATTTTTTACATTGTACATATTTATTCCTTTTA [XGTACX_site8028]  7.91 ± 0.59
17. TTTTGTTTTAAAAGTACACACTTTTAATTAGATTTC [CACACA_site4788]  7.8 ± 0.37
18. TTTTACAAAGTATGATGTACAAGTATATATAAATAT [XGTACX_site2072]  7.76 ± 0.35
19. TTTTTTTTCTTCAAGCGTACTTATTTGTAGAAAAAA [XGTACX_site1728]  7.75 ± 0.49
20. TGAAAAGGAAAATTTTGTACATATACATCAAGGATA [XGTACX_site656]  7.62 ± 0.57
21. TAAATATTATAAATGATACACACTTAAAATACTCAC [CACACA_site2710]  7.58 ± 0.5
22. TAAGGACTAATATTTGAACACACATATAATATATAC [CACACA_site9325]  7.56 ± 0.69
23. AAAAAAAAGAATTTACGTACTTATTATTTATATTTT [XGTACX_site5701]  7.49 ± 0.35
24. TATAAATTTAAAATGACACACACTAAAGTTATTTAA [CACACA_site6700]  7.39 ± 0.56
25. TATAACATTTTTTTCAAAATAGCTTTAGAAATAAAG [CACACA_negctrl_site718]  7.37 ± 0.54
